Test results published in patent US10195245B2, “Tetrapeptides derived from human C-X-C chemokines useful for treatment of various skin conditions” (Helix Biomedix, Inc., priority 2013, dated 2019).
Entries after “also recorded” stand apart in the source; their conditions may differ. Part of at least one peptide drawing is inferred or uncertain, most often the ends. Marks after values point to notes of the source that are not given here. Some compounds share one wording; it may come from a single statement. Where a SMILES comes first, the peptide text is derived from it.

Legend:
Type in all cases: cell-based
[1] = test system: Normal human skin keratinocytes (ATCC CRL-2404); assay: Keratinocyte proliferation (SRB assay); conditions: for Percent (%) Proliferation relative to PBS: 48-72 hr, SRB, PBS = 100; for modulation of keratinocyte proliferation (in words): human skin keratinocytes
[2] = test system: SOR-300-FT human psoriasis tissue construct; assay: qPCR gene expression on SOR-300-FT psoriasis tissue
Text: SOR-300-FT, developed by MatTek Corporation (Ashland Mass.), is a highly differentiated in vitro psoriasis tissue comprised of normal, human-derived keratinocytes and psoriatic fibroblasts Morphologically, the tissue is of uniform thickness and it expresses increased levels of hyperproliferated cells as well as pro-inflammatory markers such as psoriasin, elafin, human beta-defensin-2, and LL-37 etc (Ayehunie et al., 2012). The pro-inflammatory condition of the tissue prompts us to test the inventive peptides to see if they modulate the inflammatory response. Due to the high cost of the tissue model, a representative peptide SEQ ID NO 1, HB2233, was selected as a proof of concept study using SOR-300-FT tissue model. The SOR-300-FT tissues were treated with HB2233 in duplicate at 200 μg/ml. Total 12 gene markers associated with psoriasis condition are studied. […] Both HB2233 and calcipotriol down-regulate Ki67 expression which is responsible for the hyperproliferation and early maturation of keratinocytes in psoriasis skin.
SOR-300-FT™ tissues were transferred to 6-well plates containing 0.9 ml of pre-warmed assay medium and equilibrated to standard culture conditions (37° C., 5% CO2) for 1 hour. After the 1 hr equilibration, the tissues were re-fed with fresh medium as follow: 1) for the 24 hr time point, tissues were feed with 0.9 ml of medium and 2) for time points >24 hr, tissues were feed with 5 ml of culture medium by placing the cell culture inserts on top of the washers (Part # EPI-WSHR, MatTek Corporation). Next, 50 μl of the test articles were applied topically to the psoriatic tissues (n=3) and the test article was added to the culture medium at the 3 concentrations chosen by the Sponsor. At times 24, and 48 hours: a) the tissues were rinsed topically 3× with 300-400 μL of PBS, b) the inserts containing the tissues were held tightly with sterile forceps and the test article was rinsed gently by immersing the insert into PBS and decant medium from insert, and c) fresh test article was re-applied to the tissue immediately after rinsing and decanting (50 μL topically). Analysis was performed at t=72 hr (3× repeat applications). cDNA was generated using the Qiagen RT2 First Strand Kit (cat#330401). Relative gene expression was measured using Qiagen RT2 SYBR Green qPCR Mastermix (cat#330502) and Qiagen RT2 primers. Analysis was carried out using Bio-Rad CFX software.

[3] = test system: TGF-β1 in normal neonatal human epidermal keratinocytes; assay: TGF-β1 production (total TGF-β1 ELISA); conditions: for Percent (%) TGF-β induction relative to PBS: peptide 50 μg/ml, 72 hr, PBS = 100
[4] = test system: Human skin keratinocytes (ATCC CRL-2404); conditions: 7 hr; for Wound closure Relative to PBS (%): peptide 20 μg/ml, PBS treated taken as 100%
[5] = test system: human umbilical vein endothelial cells (HUVEC); assay: In vitro angiogenesis assay (capillary tube formation); design: key to Promote tube formation 3 hrs / Promote tube formation 5 hrs: 0: Individual cells, well separated; 1: Cells begin to migrate and align themselves; 2: Capillary tubes visible, no sprouting; 3: Sprouting of new capillary tubes visible; 4: Closed polygons begin to form; 5: Complex mesh like structures develop; conditions: for capillary tube formation on HUVEC (in words): 3 and 5 hr treatment; for Promote tube formation 3 hrs / Promote tube formation 5 hrs: values ≥3 considered significant induction of angiogenesis
Text: Angiogenesis, the formation of new capillaries from the pre-existing vascular network, is an essential step of wound repair. The peptides generated in the current invention, SEQ ID NOs 1-7, also stimulate capillary tube formation. The in vitro angiogenesis assay uses human umbilical vein endothelial cells (HUVEC) to measurer a series of events that lead to forming new capillary tubes. Upon induction, the HUVEC undergoes migration to align then sprouting from individual cells. The sprouting event leads to formation of new capillary tubes which further develop to form closed polygons. Eventually a complex mesh like structure is developed. Human cathelicidin peptide, LL-37, is a well-studied example to promote angiogenesis. It is used as positive control in the assessment. […] Compared to LL-37, SEQ ID NOs.
The angiogenesis assay was performed using the In Vitra Angiogenesis Assay Kit purchased from Millipore. Briefly, matrix layer was prepared with ECMATRIX™ solution according to the manufacturer's instructions. The human umbilical vein endothelial cells (HUVEC) (ATCC, Manassas, Va.) were cultured in complete F12K medium (ATCC, Manassas, Va.) supplemented with 0.1 mg/ml of heparin (Sigma-Aldrich), 30 ug/ml of ECGS (Sigma-Aldrich) and 10% fetal bovine serum (ATCC, Manassas, Va.). The cells were harvested and resuspended in complete media. The peptide was mixed with cells at approximately 5×10^3-1×10^4 cells per well in a 96-well plate prior to seeding cells onto the surface of the polymerized ECMATRIX™ solution. The plate was incubated at […], 5% CO2 for up to 9-12 hr. Tube formation was inspected under an inverted light microscope periodically and pictures were taken at 3 and 5 hr intervals and assigned a numerical value to each pattern as shown below.

[6] = test system: EPIDERM normal human skin substitutes; assay: PCR array gene profiling on EPIDERM skin substitutes
[7] = HB2233 330 ug/ml, 24 hours, vs. water treated control

## CC[C@H](C)[C@H](N)C(=O)N[C@@H](CCC(=O)O)C(=O)N[C@@H](CCCCN)C(=O)N[C@@H](CCSC)C(=O)O [HB2233, IEKM] (H-IEKM-OH)
[1]
  Percent (%) Proliferation relative to PBS: 77.54* %
  modulation of keratinocyte proliferation (in words): showed inhibitory activity on keratinocyte proliferation
[2]; 72 hr treatment, 200 μg/ml, qPCR
  down-regulation of the expression level of LL-37: 3.7 fold
[2]; 72 hr, HB2233 at 200 μg/ml
  Fold change in gene expression: Calgranulin C: 1.2 fold
  Fold change in gene expression: Elafin: 1.1 fold
  Fold change in gene expression: HBD-2: 1.5 fold
  Fold change in gene expression: IL-8: 1.0 fold
  Fold change in gene expression: LL-37: −3.7 fold
  Fold change in gene expression: P63: 1.2 fold
  Fold change in gene expression: Psoriasin: 1.3 fold
  Fold change in gene expression: SLPI: −1.3 fold
  Fold change in gene expression: Transglutaminase: 1.2 fold
[3]
  TGF-β1 expression in cultural keratinocytes (in words): induced moderate level of TGF-β1 expression
  Percent (%) TGF-β induction relative to PBS: 125* %
[4]
  Wound closure Relative to PBS (%): 232* %
[5]
  capillary tube formation on HUVEC (in words): new capillary tube formation and complex polygon structures
  Promote tube formation 3 hrs: 3*
  Promote tube formation 5 hrs: 4*
[6]; 24 hrs, vs water control
  gene profiling on EPIDERM skin substitutes (in words): stimulates genes that are involved in ECM synthesis (collagen and integrins); also recorded: modulates chemokines (CXCL11 and MAPK3 etc) and growth factors (TGF-β1 and VEGF etc.)
[6]; [7]
  Fold change ACTA2 (Actin-α-12): 2.57 fold
  Fold change COL1A1 (Type 1 collagen α-1): 2.08 fold
  Fold change CTGF (Connective tissue growth factor): 3.63 fold
  Fold change CXCL1 (Chemokine (C-X-C) ligand 1): 2.08 fold
  Fold change CXCL11 (Chemokine (C-X-C) ligand 11): 9.58 fold
  Fold change FGF2 (FIBROBLAST GROWTH FACTOR): 1.69 fold
  Fold change HBEGF (Heparin-binding EGF-like growth factor): 2.75 fold
  Fold change ITG5 (Integrin α-5): 2.08 fold
  Fold change ITGA1 (Integrin α-1): 2.08 fold
  Fold change ITGA3 (Integrin α-3): 1.82 fold
  Fold change ITGB5 (Integrin β-5): 2.95 fold
  Fold change MAPK3 (Mitogen activated protein kinase 3): 4.17 fold
  Fold change PLAT (Tissue plasminogen activator): 3.63 fold
  Fold change PLAUR (Plasminogen activator, urokinase receptor): 2.23 fold
  Fold change TGFB1 (Transforming growth factor β-1): 3.16 fold
  Fold change VEGFA (Vascular endothelial growth factor): 3.89 fold
  Fold change WISP1 (WNT1 inducible signaling pathway protein 1): 2.95 fold
  Fold change WNT5A (Wingless-type MMTV integration site family, member 5A): 2.95 fold

## CC(C)[C@H](N)C(=O)N[C@@H](CCC(=O)O)C(=O)N[C@@H](CCCCN)C(=O)N[C@@H](Cc1ccccc1)C(=O)O [HB2267, VEKF] (H-VEKF-OH; N-terminus and C-terminus assumed)
[1]
  Percent (%) Proliferation relative to PBS: 93.23%
[3]
  Percent (%) TGF-β induction relative to PBS: 109%
[4]
  Wound closure Relative to PBS (%): 139%
[5]
  capillary tube formation on HUVEC (in words): new capillary tube formation and complex polygon structures
  Promote tube formation 3 hrs: 3*
  Promote tube formation 5 hrs: 4*

## CSCC[C@H](NC(=O)[C@@H](N)CCCCN)C(=O)NCC(=O)O [HB2268, KMG, reference compound] (H-Lys-Met-Gly-OH)
[4]; 20 μg/ml, compared to PBS treated
  induction of cell migration and scratch wound closure (in words): does not induce cell migration and scratch wound closure
[4]
  Wound closure Relative to PBS (%): 106%
[5]
  capillary tube formation on HUVEC (in words): do not induce such change
  Promote tube formation 3 hrs: 1
  Promote tube formation 5 hrs: 2

## CC[C@H](C)[C@H](N)C(=O)N[C@@H](CCC(=O)O)C(=O)N[C@@H](CCCCN)C(=O)N[C@H](C(=O)O)[C@@H](C)CC [HB2270, IEKI] (H-IEKI-OH; N-terminus and C-terminus assumed)
[1]
  Percent (%) Proliferation relative to PBS: 86.31* %
  modulation of keratinocyte proliferation (in words): such inhibitory activity was also observed
[3]
  TGF-β1 expression in cultural keratinocytes (in words): induced moderate level of TGF-β1 expression
  Percent (%) TGF-β induction relative to PBS: 114* %
[4]
  Wound closure Relative to PBS (%): 206* %
[5]
  capillary tube formation on HUVEC (in words): new capillary tube formation and complex polygon structures
  Promote tube formation 3 hrs: 3*
  Promote tube formation 5 hrs: 4*

## CC[C@H](C)[C@H](N)C(=O)N[C@@H](CCC(N)=O)C(=O)N[C@@H](CCCCN)C(=O)N[C@H](C(=O)O)[C@@H](C)CC [HB2271, IQKI] (H-IQKI-OH; N-terminus and C-terminus assumed)
[1]
  Percent (%) Proliferation relative to PBS: 98.00%
[3]
  Percent (%) TGF-β induction relative to PBS: 109%
[4]
  Wound closure Relative to PBS (%): 228* %
[5]
  capillary tube formation on HUVEC (in words): new capillary tube formation and complex polygon structures
  Promote tube formation 3 hrs: 3*
  Promote tube formation 5 hrs: 4*

## CC[C@H](C)[C@H](N)C(=O)N[C@@H](CCCCN)C(=O)N[C@@H](CCCCN)C(=O)N[C@@H](Cc1c[nH]c2ccccc12)C(=O)O [HB2272, IKKW] (H-IKKW-OH; N-terminus and C-terminus assumed)
[1]
  Percent (%) Proliferation relative to PBS: 96.46%
[3]
  Percent (%) TGF-β induction relative to PBS: 95.6%
[4]
  Wound closure Relative to PBS (%): 230* %
[5]
  capillary tube formation on HUVEC (in words): new capillary tube formation and complex polygon structures
  Promote tube formation 3 hrs: 3*
  Promote tube formation 5 hrs: 4*

## CC[C@H](C)[C@H](N)C(=O)N[C@@H](CCCCN)C(=O)N[C@@H](CCCCN)C(=O)N[C@H](C(=O)O)C(C)C [HB2273, IKKV] (H-IKKV-OH; N-terminus and C-terminus assumed)
[1]
  Percent (%) Proliferation relative to PBS: 112%
  modulation of keratinocyte proliferation (in words): seems to stimulate keratinocyte proliferation but such activity is only marginal
[3]
  Percent (%) TGF-β induction relative to PBS: 101%
[4]
  Wound closure Relative to PBS (%): 165* %
[5]
  capillary tube formation on HUVEC (in words): new capillary tube formation and complex polygon structures
  Promote tube formation 3 hrs: 3*
  Promote tube formation 5 hrs: 4*

## CC[C@H](C)[C@H](N)C(=O)N[C@@H](CCCCN)C(=O)N[C@@H](CCCCN)C(=O)N[C@@H](CC(C)C)C(=O)O [HB2274, IKKL] (H-IKKL-OH; N-terminus and C-terminus assumed)
[1]
  Percent (%) Proliferation relative to PBS: 96.31%
[3]
  Percent (%) TGF-β induction relative to PBS: 96%
[4]
  Wound closure Relative to PBS (%): 172* %
[5]
  capillary tube formation on HUVEC (in words): new capillary tube formation and complex polygon structures
  Promote tube formation 3 hrs: 3*
  Promote tube formation 5 hrs: 4*
